Reference: article PMC12040169 (PLOS Biology, 2025)
This is one part of the list.

System: T1, C. trachomatis L2/434/Bu expressing GFP (CTL2-GFP)
T1 construct: L2/434/Bu GFP intracellular growth in HeLa cells
Set-up: species or system HeLa; C. trachomatis total inclusion area by high-content imaging, normalised to DMSO
Settings: total inclusion area; 28.5 h, 10 µM; inhibitor
Procedure, shortened: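 Host cell viability was gauged from Hoechst-stained nuclei counts, while chlamydial growth was taken from total inclusion area and inclusion number per well. Cells were fixed and imaged by high-content microscopy once bulk GFP and resorufin fluorescence had been measured.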

Row | SMILES | % of control remaining
1 | O[C@@]1(c2ccccn2)CC[C@H]2CN(Cc3ccccc3F)C[C@H]21 [CBK283001] | 80.2283
2 | CCc1c(C)nc2nnc(NC(=O)C(F)(F)F)n2c1O [CBK020762] | 38.9988
3 | COCCNc1cc(-c2ccc(NC(C)=O)cc2)ncn1 [CBK090799] | 82.9701
4 | CNC1CCC2(c3ccc(OC)c(OC)c3)CCN(C)C2C1 (stereo not shown) [CBK059586C] | 91.3586
5 | Cc1cc(C)nc(NC(=O)NS(=O)(=O)Nc2ccccc2Cl)n1 [CBK260912] | 100.724
6 | CS(=O)(=O)NC1CCCN(c2ccc3ccccc3n2)C1 (stereo not shown) [CBK306457] | 61.5172
7 | CCOC(=O)N1CCC(NC(=O)N2CCN(c3ccccc3)CC2)CC1 [CBK155210] | 103.006
8 | CCOc1cc(CNCc2ccccn2)cc(Cl)c1OCC [CBK268516C] | 93.8314
9 | Nc1nc(SCCCN2C(=O)c3cccc4cccc(c34)C2=O)nc2sc3c(c12)CCCC3 [CBK264433] | 121.856
10 | CS(=O)(=O)NC[C@H]1O[C@@H](Cc2nc(-c3ccc(F)cc3)no2)[C@H](O)[C@@H]1O [CBK288906] | 111.882
11 | CCc1n[nH]c(C(=O)NCC(c2ccc(F)cc2)N2CCCC2)c1C (stereo not shown) [CBK282630] | 121.869
12 | CC(=O)Nc1ccc(-c2ccc(C(=O)NC3CC3)cn2)cc1 [CBK158854] | 97.3154
13 | CN(C)c1ccc(CN2CC[C@H](c3nc4cccc(C(N)=O)c4[nH]3)C2)cc1 [CBK289414] | 80.4345
14 | O=c1c(N2CCC(Sc3ccccc3)CC2)nccn1Cc1ccc(-n2cncn2)cc1 [CBK153655] | 74.4375
15 | FC(F)(F)c1cccnc1OCc1cccnc1 [CBK115780] | 71.7518
16 | CC1CCc2c(C(=O)N3CCC4(CC3)NC(=O)NC4=O)csc2C1 (stereo not shown) [CBK305741] | 24.3617
17 | Cc1ccc(NC(=O)N2CCc3ccccc3C2)cc1 [CBK155309] | 69.497
18 | CCOc1ncccc1NC(=O)c1cnc2c(cnn2CC(C)C)c1 [CBK304288] | 98.0175
19 | CC(C)n1cc(C(=O)NCc2cccnc2N(C)C2CCCCC2)cn1 [CBK307593] | 99.2158
20 | c1ccc2c3c([nH]c2c1)C12CCN(CC1)C(c1ccncc1)N2CC3 (stereo not shown) [CBK284434] | 74.6137

Row | SMILES | % of control remaining
21 | COCCn1ccnc1C1CCCN(C(=O)COc2ccccc2Cl)C1 (stereo not shown) [CBK307211] | 75.7277
22 | COC(=O)c1scc(NS(=O)(=O)c2ccc(Cl)cc2Cl)c1C(=O)OC [CBK026681] | 82.774
23 | CCC(=O)Nc1ccc(-n2cnc(C(=O)NCc3cccnc3)c2)nc1 [CBK288603] | 115.668
24 | O=C(CSc1nnc(Cc2cccc3ccccc23)n1-c1ccccc1)NC1CCCCC1 [CBK266052] | 119.133
25 | Nc1nc(OCc2ccncc2)cnc1-c1cnn(Cc2ccccc2)c1 [CBK145194] | 96.2227
26 | CCOC(=O)c1c(NC(=O)NCc2ccncc2)sc2c1CCC2 [CBK307591] | 72.6238
27 | O=C(Nc1ccc(Cl)c(Cl)c1)c1cnc2sccn2c1=O [CBK287449] | 92.1769
28 | COc1cc([N+](=O)[O-])ccc1NC(=S)Nc1cccc(S(=O)(=O)N2CCOCC2)c1 [CBK267042] | 129.99
29 | Cc1ccsc1CN(Cc1cncn1C)CC(C)O (stereo not shown) [CBK283033] | 96.2021
30 | Cc1ccc(C)c(OCC(=O)N(Cc2nc(-c3ccccc3)no2)C2CCCCC2)c1 [CBK269067] | 100.331
31 | O=C(O)CCc1nnc(S)n1Cc1ccccc1 [CBK286926] | 113.119
32 | COc1cccc(CC(=O)Nc2ncccc2C)c1 [CBK304982] | 135.682
33 | c1cnn(CC2CCCCN2c2ncnc3ccsc23)c1 (stereo not shown) [CBK304843] | 84.0316
34 | CC(C)N1CNc2c(c(=O)nc(O)n2Cc2ccccc2)C1 [CBK291139] | 102.899
35 | CCOC1C(OCC)N(S(=O)(=O)c2ccc(C)cc2)CCN1S(=O)(=O)c1ccc(C)cc1 (stereo not shown) [CBK261832] | 88.0497
36 | CNS(=O)(=O)N1CCN(S(=O)(=O)NC)CC1 [CBK007064] | 24.0354
37 | CS(=O)(=O)CCNC(=O)c1cnc(-c2cccc(C(F)(F)F)c2)c(-c2ccncc2)c1 [CBK036661] | 86.1283
38 | Cc1ccccc1OCCSc1nc2ccccc2n1CCO [CBK262523] | 99.7682
39 | COc1cccc(NC(=S)NCCc2ccccn2)c1 [CBK265245] | 89.6522
40 | CC(=O)Nc1cnn(-c2ccc(C(=O)N3CCCCC3c3nc4ccccc4[nH]3)cc2)c1 (stereo not shown) [CBK291109] | 102.931
